B1: sdCA9-1-VHH CAR: single binder chimeric antigen receptor construct with sdCA9-1-VHH antigen binding domain, SEQ ID NO: 37 (protein)
chain: MLRLLLALNLFPSIQVTGQVQLVESGGGLVQAGGSLRLSCAASGFTFDDWAIGWFRQAPGKEREGVSCISKRHGTTHYADSVKGRFTISSDNAKNTVYLRMNGLKPEDTAVYYCAASSWGSCTVATMRDVDRYDYDYWGQGTQVTVSSPSGGGGPSTTTPAPRPPTPAPTIASQPLSLRPEACRPAAGGAVHTRGLDFACDPSKPFWVLVVVGGVLACYSLLVTVAFIIFWVRKRGRKKLLYIFKQPFMRPVQTTQEEDGCSCRFPEEEEGGCELL[no letters for about 120 residues]
modifications: sdCA9-1-VHH CAR amino acid sequence, exemplary sequence for a single binder CAR construct
B2: sdCA9-1-Fc: sdCA9-1-VHH in-frame fusion with human IgG1-Fc, SEQ ID NO: 16 (protein)
chain: EFATMEFGLSWVFLVAILKGVQCQVQLVESGGGLVQAGGSLRLSCAASGFTFDDWAIGWFRQAPGKEREGVSCISKRHGTTHYADSVKGRFTISSDNAKNTVYLRMNGLKPEDTAVYYCAASSWGSCTVATMRDVDRYDYDYWGQGTQVTVSSA[no letters for human IgG1 Fc]
modifications: Leader-sdCA9-1-VHH-Linker-hIgG1Fc
B3: sdCA9-2-Fc: sdCA9-2-VHH in-frame fusion with human IgG1-Fc, SEQ ID NO: 17 (protein)
chain: EFATMEFGLSWVFLVAILKGVQCQVKLEESGGDLVQPGGSLRLSCAASGFTLDYYAIGWFRQAPGKEREGVSCFSSVDGSTYYADSVKGRFTISRDNAKNMVYLQMNSLKPEDTAIYYCAAELYGELGVATVQAMCRLTTPGGDYWGQGTQVTVSSA[no letters for human IgG1 Fc]
modifications: Leader-sdCA9-2-VHH-Linker-hIgG1Fc

What was measured:
[1] = system: CAIX expressing SKRC52 target cells; assay: In vitro CAR-Jurkat (CAR-J) assay, CAIX-positive target cells; format: cell-based, human; conditions: Jurkat cells electroporated with CAR plasmid, co-culture with SKRC52; flow cytometry; CD19-CAR control
Method: FIG. 13 Depicts the results of CAR-Jurkat activity assay wherein Jurkat cells were transiently electroporated with sdCA9-1-VHH, sdCA9-2-VHH CAR or an irrelevant target CD19 CAR plasmid as a control and cultured either alone or in co-culture with CAIX-positive (SKRC52 cell line) or CAIX-negative (SKOV3) cell lines. The level of T cell activation was measured using human CD69-specific antibody staining and flow cytometry. Graphs depict the mean fluorescent intensity for CD69-staining for each single domain antibody targeted CAR constructs performed in a single experiment in duplicate, either in culture with no target cells (first bar), CAIX negative SKOV3 target cells (second bar), or CAIX positive SKRC52 target cells (third bar). Error bars show the standard error of the mean for duplicate wells.
In vitro CAR-Jurkat (CAR-J) assay: CAIX-targeting CAR constructs were then tested for activity in an immortalized human T cell line (Jurkat) as described in Bloemberg et al., 2020. In brief, plasmids were electroporated into Jurkat T cells and allowed to recover for several hours. […] In order to measure CAR-mediated Jurkat cell activation, expression of CD69 was measured using specific antibody staining and flow cytometry. Using expression of GFP-marker to gate CAR-expressing cells, the level of T cell activation was determined using the CD69-surface marker. […]

[2] = system: SKRC59 and SKRC52 cell lines (low and high levels of hCA-IX); assay: Cell binding assay, plate format; format: cell-based, human; conditions: mean fluorescent intensity per cell area; cell line of Table 3 not stated
Method: Cell binding assays were performed using a plate-based format, binding was expressed as the mean fluorescent intensity per cell area. (control IgG (●), cG250 (▪), sdCA9-1-Fc (▴), and sdCA9-2-Fc (▾)). KD values were determined by plotting fluorescent intensity measured for each condition of the sdCA9-Fc antibodies using Graphpad Prism. cG250 full sized antibody (FSA) and isotype matching IgG FSA were used as bench mark and negative control, respectively.
Cell binding. […] These cell lines have been used in the literature for the screening of scFv Abs for binding to hCA-IX (Xu et al. 2010). KD values were determined to be in the low nanomolar range, the clinically used cG250 full sized antibody (FSA) was used as a bench mark. An isotype matching hIgG was used as negative control (FIG. 5).

Molecule | T cell activation, CD69 fluorescent intensity [1] | Bmax (best-fit value, one site specific binding) [2]
B1 | CAIX-specific response | 
B2 |  | 264.7
B3 |  | 311.9
